“And” between values parts separate entries of the source, which are not always exact repeats. Equal values may be shown once. The full ranking holds about 5,300 compounds; the median of “PER2::LUC luminescence relative to vehicle control” is about 0.96, and the highest 2% start at about 1.3. The list shows a part of the results.
System: mPer2Luc MEF
Experiment: PER2::LUC luminescence relative to vehicle control (fold of vehicle); higher = higher PER2::LUC reporter signal
Settings: 10 µM
Summary of the method: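 Compounds from commercial libraries were added at 10 μM to 384-well plates seeded 48 h earlier with ~3000 mPer2Luc mouse embryonic fibroblasts per well. The cells were kept in DMEM with 10% FBS at 37 °C and 5% CO2. Luminescence was read with ONE-Glo 24 h and 30 h after treatment, then an alamarBlue viability assay was run. Values are PER2::LUC luminescence relative to vehicle control, as fold change.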

| Structure (SMILES) | PER2::LUC luminescence (time after treatment 24 h) | PER2::LUC luminescence (time after treatment 30 h) |
| --- | --- | --- |
| CCNC1(C(N)=O)CCN(c2ncnc3c2nc(-c2ccccc2Cl)n3-c2ccc(Cl)cc2)CC1 | 0.716 | 0.771 |
| C[C@@H]1CN(c2c(F)c(F)c3c(=O)c(C(=O)O)cn(C4CC4)c3c2F)C[C@H](C)N1 | 0.849 | 0.813 |
| CCCCS(=N)(=O)CCC(N)C(=O)O (stereo not given) | 1.03 | 0.971 |
| O=C(CSc1nc2c(c(=O)n1-c1ccccc1)SCC2)Nc1ccc(-c2ccccc2)cn1 | 0.983 | 0.925 |
| COc1cccc(OC)c1OCCNCC1CSc2ccccc2O1 (stereo not given) | 0.914 | 0.859 |
| CCOC(=O)CC(=O)N1CCSC1COc1ccccc1OC (stereo not given) | 0.948 | 1.09 |
| CC(=O)Oc1ccc(C(c2ccc(OC(C)=O)cc2)c2ccccn2)cc1 | 0.897 | 0.948 |
| CC1(C)CC2C1CC[C@]1(CBr)CCC3C(CC(=O)O)C(=O)O[C@@]32C1 (stereo not given in full) | 1.04 | 0.929 |
| COc1cc(CNC(=O)CCCCCCC(C)C)ccc1O | 1.03 | 0.876 |
| O=[N+]([O-])c1ccc(O)c2ncccc12 | 0.562 | 0.581 |
| N#CC[C@H](C1CCCC1)n1cc(-c2ncnc3[nH]ccc23)cn1 | 0.99 | 1.13 |
| O=C1CC[C@]23/C=C/C(=O)NCCCCNCCCNC(=O)/C=C/c4ccc(c2c4)O[C@@H]3C1 | 0.978 | 0.915 |
| CN(C[C@@H]1COCCO1)S(=O)(=O)Nc1ccc2ccc3ncc(-c4cnn(C)c4)cc3c(=O)c2c1 | 0.792 | 0.671 |
| CC(O)(CC(=O)O)CC(=O)O | 1.07 and 0.607 | 1.05 and 1.01 |
| CCCCOC(=O)c1cc2c(cn1)[nH]c1ccccc12 | 1.05 | 0.959 |
| COc1cc(NC(=O)Nc2cccc(CNC(=O)O[C@H]3CCOC3)c2)ccc1-c1cnco1 | 0.791 | 0.783 |
| CC1CCC(C(C)C)C(O)C1 (racemic) | 1.02 | 1.25 |
| CCCc1nn(C)c2c(=O)[nH]c(-c3cc(S(=O)(=O)N4CCN(C)CC4)ccc3OCC)nc12 | 0.769 and 0.533 | 0.924 and 1.09 |
| COc1cc(O)c(C(=O)/C=C/c2ccccc2)c(OC)c1 | 0.907 | 0.937 |
| CC(=O)Nc1ccc(S(=O)(=O)c2ccc(NC(C)=O)cc2)cc1 | 1.1 | 0.885 |
| c1ccc(-c2nn3c(c2-c2ccnc4cc(OCCN5CCOCC5)ccc24)CCC3)nc1 | 0.646 | 0.598 |
| C[S+](CC[C@H](N)C(=O)[O-])C[C@H]1O[C@@H](n2cnc3c(N)ncnc32)[C@H](O)[C@@H]1O (stereo not given in full) | 1.04 | 0.878 |
| O=C(O)c1ccccc1Nc1cccc(C(F)(F)F)c1 | 0.808 | 1.11 |
| OCCc1ccccc1 | 0.801 and 0.495 | 1.25 and 0.971 |
| O=C(c1ccc(F)cc1)C1CCN(CCn2c(=S)[nH]c3ccccc3c2=O)CC1 | 0.979 | 0.936 |
| O=C(O)Cn1nnc(-c2cc(N3CCC(Oc4cc(F)ccc4Br)CC3)no2)n1 | 1.24 | 1.15 |
| Cc1cccc(C)c1OCC(=O)N[C@@H](Cc1ccccc1)[C@@H](O)C[C@H](Cc1ccccc1)NC(=O)[C@H](C(C)C)N1CCCNC1=O | 0.908 | 0.88 |
| Clc1ccc(C(c2ccccc2Cl)C(Cl)Cl)cc1 (stereo not given) | 0.862 and 1.09 and 1.15 | 0.871 and 1.12 and 1.02 |

| Structure (SMILES) | PER2::LUC luminescence (time after treatment 24 h) | PER2::LUC luminescence (time after treatment 30 h) |
| --- | --- | --- |
| O=C1O[C@H]([C@@H](O)CO)C(O)=C1O | 1.11 and 1.05 | 0.913 and 0.929 |
| CCCCN1CCCC[C@H]1C(=O)Nc1c(C)cccc1C | 0.953 | 0.997 |
| C[C@@H]1CC[C@@]2(OC1)O[C@H]1C[C@H]3[C@@H]4CC=C5C[C@@H](O)CC[C@]5(C)[C@H]4CC[C@]3(C)[C@H]1[C@@H]2C | 0.916 | 0.872 |
| CNCc1ccc(C)c(NC(=O)c2ccc(Nc3nc(-c4ccccc4)c4ccccc4n3)cc2)c1 | 0.439 | 0.475 |
| CCCCCCCCCCCCCCCCCCNC(=O)OCC(COP(=O)([O-])OCC[n+]1ccsc1)OC (stereo not given) | 0.987 | 0.869 |
| COc1cc(CCc2cc(NC(=O)c3ccc(N4CC(C)NC(C)C4)cc3)n[nH]2)cc(OC)c1 (stereo not given) | 0.561 | 0.448 |
| CC(C)=CCC[C@](C)(O)[C@H]1CC[C@]2(C)[C@@H]1[C@H](O)C[C@@H]1[C@@]3(C)CC[C@H](O)C(C)(C)[C@@H]3[C@@H](O)C[C@]12C | 1.05 | 0.998 |
| O=C(O)C1(c2ccc(-c3ccc(Cl)c(Cl)c3)c(F)c2)CC1 | 1.14 | 1.11 |
| O=C1Nc2ccc(Cl)cc2[C@@](C#CC2CC2)(C(F)(F)F)O1 | 1.09 | 1.06 |
| c1ccc2sc(N3CCN(Cc4ccc5c(c4)OCO5)CC3)nc2c1 | 1.06 | 0.947 |
| NCCCS(=O)(=O)O | 1.03 and 1.06 and 1.09 | 1.11 and 1.02 and 0.815 |
| Cc1c(S(=O)(=O)O)oc2c1C(=O)C(=O)c1c-2ccc2c1CCCC2(C)C | 0.998 | 0.889 |
| N#C/C(=C/c1ccc(O)c(O)c1)C(=O)NCc1ccccc1 | 0.992 | 1.05 |
| CC(C)[C@H](O)C(=O)N[C@@H](C)C(=O)N[C@@H]1C(=O)N(C)CCc2ccccc21 | 1.05 and 0.967 | 0.937 and 0.922 |
| Cc1cn(-c2cc(NC(=O)c3ccc(C)c(Nc4nccc(-c5cnccn5)n4)c3)cc(C(F)(F)F)c2)cn1 | 1.05 | 1.13 |
| Nc1nc(/C(=C/CC(=O)O)C(=O)N[C@@H]2C(=O)N3C(C(=O)O)=CCS[C@H]23)cs1 | 0.903 | 0.975 |
| O=C(Nc1ccc(Cl)cc1CN1C(=O)c2ccccc2C1=O)c1ccccc1O | 1.03 | 1.02 |
| Nc1ccc(/N=N/c2ccccc2)c(N)n1 | 1.76 | 1.7 |
| C[C@H](N[C@@H](CCc1ccccc1)C(=O)O)C(=O)N1Cc2ccccc2C[C@H]1C(=O)O | 0.982 | 0.917 |
| CCc1cc(Cl)c(OC)c(C(=O)NC[C@@H]2CCCN2CC)c1O | 0.882 | 0.897 |
| CC1=CC(=O)C2=C(C)CC[C@@H]3[C@H](OC(=O)[C@H]3C)[C@@H]12 | 0.959 | 0.978 |
| CN(C)CCOC(=O)C(c1ccccc1)C1(O)CCCC1 (stereo not given) | 0.923 | 0.94 |
| O=C(/C=C/c1ccccc1)c1ccc(O)cc1 | 1.33 | 1.48 |
| CN1CCC(=C2c3ccccc3CCn3c(C=O)cnc32)CC1 | 0.987 | 0.922 |
| O=C(Nc1ccc(CN2CCOCC2)cc1)c1ccc(-c2cccc(Cl)c2)o1 | 0.955 and 0.883 | 0.965 and 0.868 |
| Nc1[nH]c(=O)ncc1F | 0.87 | 1.01 |
| CCC(=O)O[C@]1(C(=O)SCF)[C@H](C)C[C@H]2[C@@H]3C[C@H](F)C4=CC(=O)C=C[C@]4(C)[C@@]3(F)[C@@H](O)C[C@@]21C | 0.722 | 1.23 |
